Data: PubChem BioAssay AID1963576 (National Center for Advancing Translational Sciences (NCATS), 2024)
Hit rate of the full screen: of about 46,000 compounds, about 60 (0.1%) were called active. Inconclusive results (about 3%) are left out. Calls follow the shape of the dose curve; as a rule, active = well fitted inhibition curve with a large enough effect; inconclusive = small, poorly fitted or top-dose-only effect; inactive = no such curve, though single readings can be large or run the other way. Some of the results follow.

Experiment: Primary qHTS assay for Inhibitors of ovarian cancer metastasis using an organotypic tumor microenvironment (TME) model. Also: nearly all actives have a fitted effect of over 65% in size.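 As to activity change, negative = inhibition: plate controls were DMSO wells for no effect and tomatine positive control wells for full effect.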
Details: SKOV3ip1-GFP adhesion/invasion on 3D omental model, fluorescence; series mostly up to 45.8 µM; activity change, negative = inhibition: at the top concentration
Outline: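 Adhesion/invasion was scored as fixed GFP-labeled SKOV3ip1 cell counts (488/509 nm), normalized to DMSO and tomatine controls. Cancer cells in serum-free medium, with four compound doses (0.36-46 umol/L), sat 2 hr at RT then 16 hr at 37 C on a 48 hr fibroblast/mesothelial/ECM culture.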

Activity change, negative = inhibition, inactive:
NC(=O)c1cc(S(=O)(=O)NCc2ccccc2)cs1 6.64%, COc1cccc(-c2nc3c(c(SCc4ccccc4)n2)Cc2c(CO)cnc(C)c2O3)c1 -0.445%, CN(C)CC=CC(=O)Nc1cc2c(Nc3ccc(F)c(Cl)c3)ncnc2cc1O[C@H]1CCOC1 -7.82%, C=Cc1ccc(CSc2nc(-c3ccc(OC)cc3)nc3c2Cc2c(CO)cnc(C)c2O3)cc1 -7.07%, CC(C)Cc1nn2c(=O)cc(COC(=O)c3cccc(NC(=O)CCc4ccccc4)c3)nc2s1 -2.38%, COC(=O)CN1C(=O)CSc2ccc(S(=O)(=O)Nc3ccc(Cl)cc3C)cc21 8.85%, CCOC(=O)CSc1nc2cc3c(cc2c(=O)n1CCCC(=O)NCc1ccc2c(c1)OCO2)OCO3 -3.12%, CCCOc1ccccc1C(=O)N1CCC(c2nc3ccccc3s2)CC1 -1.61%, Cc1cc(OCCCS(C)(=O)=O)cc(C)c1-c1cccc(COc2ccc3c(c2)OC[C@H]3CC(=O)O)c1 -9.14%, COc1ccc(C(=O)CN2C(=O)N(c3cc(C)cc(C)c3)S(=O)(=O)c3ccccc32)cc1 1.97%, Clc1ccc(CCNc2ncnc3c2c(-c2ccccc2)cn3-c2ccccc2)cc1 4.25%, NCCc1nnc(SCc2ccc(Cl)cc2)o1 -24.1%, COc1ccccc1C(=O)Nc1nc2ccc(S(=O)(=O)N3CCCC3)cc2s1 -3.36%, CCOC(=O)c1ccc(Nc2c(-c3ccc(O)cc3)nc3nc[nH]n23)cc1 12.1%, COc1cc(C(=O)Nc2cc(C)ccc2OCc2cc(=O)n3cc(C)sc3n2)cc(OC)c1OC -4.92%, CCCCC(=O)Nc1cccc(OCc2cc(=O)n3ccccc3n2)c1 5.31%, COc1ccccc1CNC(=O)Cn1ncc2c(=O)oc3ccc(C)cc3c21 -1.47%, CCc1ccccc1NC(=O)c1cc(S(=O)(=O)NCCc2ccc(OC)c(OC)c2)ccc1F -1.14%, CCOC(=O)C1CCCN(c2ncnc3c2cnn3-c2ccc(C)c(Cl)c2)C1 (configuration not stated) 3.76%, CCOC(=O)c1ccc(NC(=O)c2oc3ccc4c(c3c2C)C(=O)CC(C)(CC)O4)cc1 (configuration not stated) -3.58%, Cn1c(=O)c2c(SCC(=O)NCc3ccco3)nc(-c3ccccc3Cl)nc2n(C)c1=O 4.46%, Cc1ccc(NC(=O)CSc2nc3c(c(=O)[nH]2)CN(Cc2ccc4c(c2)OCO4)CC3)cc1C 10.9%, Cc1cccc(NC(=O)C(=O)NCC(c2cccnc2)N2CCOCC2)c1 (configuration not stated) -6.25%, CCCOc1ccc(C2c3c(-c4ccccc4O)n[nH]c3C(=O)N2Cc2ccncc2)cc1OCC (configuration not stated) 3.96%, COc1ccc(-c2noc(C3CC(=O)N(c4cc(C)cc(C)c4)C3)n2)cc1 (configuration not stated) 4.28%, O=C(Cc1ccc(F)cc1)N1CCC(c2nc3c(nnn3Cc3ccc(Cl)cc3)c(=O)[nH]2)CC1 11.9%, COc1ccc(/C=C/c2nc(C#N)c(N3CCN(c4ccccc4)CC3)o2)cc1OC 5.98%, CN(C(=O)CSc1cn(CC(=O)N2CCCCC2)c2ccccc12)c1ccccc1 -8.59%, Cc1ccc(CCNC(=O)C2CCCN(Cc3nc(-c4cccc(Cl)c4)oc3C)C2)cc1 (configuration not stated) -43.5%, CCc1nn(CC(=O)Nc2cccc(C)c2C)c(=O)c2cc3sccc3n12 8.41%, Cc1cccc(CNC(=O)c2cnc3sc(N4CCCCC4)nn3c2=O)c1 -4.82%, CC1=C(C(=O)Nc2ccc(Cl)cc2)C(C(C)C)n2nc(SCc3cccc(C)c3)nc2N1 (configuration not stated) 9.49%, Cc1ccc(NC(=O)CSc2nc3ccccc3c3nc(CCn4c(C)nc5ccccc54)nn23)cc1F -1.64%, Cc1c(Cl)cccc1NC(=O)CCS(=O)(=O)c1ccc(Br)s1 7.52%, NC(=O)c1cc(S(=O)(=O)NCC2CCC(C(=O)Nc3cccc(Cl)c3)CC2)cs1 (configuration not stated) -9.84%, CC(C)(C)C1CCc2onc(C(=O)Nc3sc4c(c3C(N)=O)CCCC4)c2C1 (configuration not stated) -2.3%, CCOC(=O)c1cc(-c2ccccc2)n(CCCC(=O)Nc2ccc(CC)cc2)c1C -28.2%, O=C(c1ccc2c(Cl)c3c(nc2c1)CCCC3)N1CCN(c2ccccc2)CC1 2.46%, Cc1c2cnn(-c3ccccc3)c(=O)c2c(C)n1CCCC(=O)Nc1ccc(F)cc1F -2.46%, CCOc1ccccc1NS(=O)(=O)c1c(-c2ccc(C)cc2)csc1C(=O)OC -5.02%, Cn1c(=O)n(C)c2cc(S(=O)(=O)Nc3ccccc3C(=O)O)ccc21 5.05%, CCOC(=O)c1cc(-c2ccccc2)n(CC(=O)NCc2ccccc2OC)c1C -7.04%, CN(C(=O)CSc1nnc2[nH]c(=O)cc(-c3ccccc3)n12)c1ccccc1 -7.19%, COCCNC(=O)c1ccc2c(c1)N(Cc1cccc(Cl)c1)C(=O)c1ccccc1S2=O (configuration not stated) 1.16%, O=C(Nc1ccc(F)c(F)c1)C1CCCN(S(=O)(=O)c2cccc3nonc23)C1 (configuration not stated) 1.19%, Cn1cc(C[C@@H](N)C(=O)O)c2ccccc21 6.13% [at 23.2 µM], Cc1cccc(NC(=O)C2CCCN(S(=O)(=O)c3c(C)noc3/C=C/N(C)C)C2)c1C (configuration not stated) 0.735%, COc1ccc(C(=O)CCC(=O)Nc2ccccc2C)cc1 3.67%, COc1ccccc1NC(=O)CSCc1cc(=O)c2c(C)cc(C)cc2[nH]1 -9.84%, Cc1cc(C)c2c(=O)cc(CSCC(=O)Nc3nnc(C)s3)[nH]c2c1 -1.76%, CCCNC(=O)Nc1cc(C(=O)NCc2cccc(OCC)c2)ccc1N1CCCC1 13%, COc1ccc(N(C)C(=O)NCc2noc3ccc(C)cc23)c(OC)c1 -0.616%, CCC(=O)N1CCc2cc(Br)cc(S(=O)(=O)CCC(=O)Nc3ccccc3C)c21 4.75%, Cc1cc2nc3c(=O)n(C)c(=O)n(C)c3nc2cc1N=CN(C)C 2.76%, CC(C)(C)c1ccc(C(=O)Nc2ccccc2C(=O)OCc2cc(=O)n3ccsc3n2)cc1 0.221%, Cc1ccc(CN2CCN(C3CCN(C(=O)OC(C)(C)C)CC3)C(=O)C2=O)cc1 2.67%, Cc1ccc2occ(CC(=O)Nc3ccc(S(N)(=O)=O)cc3)c2c1 -7.02%, COc1ccc(NC(=O)CCc2c(C)nn(-c3ccc(N4CCOCC4)nn3)c2C)cc1Cl 6.56%, COc1ccc(-c2nc(SCC(=O)NCCCc3ccccc3)n[nH]2)cc1 9.47%, Cc1cc(OCC(=O)Nc2sc3c(c2C(N)=O)CCCC3)ccc1C(C)C 4.65%, Cc1ccc(N(CC(=O)NC(C)c2ccccc2)S(=O)(=O)c2c(C)noc2C)cc1 (configuration not stated) 3.56%, Cc1ccc(NC(=O)c2cc(S(=O)(=O)N3CCOCC3)c(Cl)cc2Cl)cc1 -2.94%, Cc1ccc(NC(=O)N2CCC(n3c(C)nc4cccnc43)CC2)c(Cl)c1 -5.8%, CCOc1ccc(NC(=O)CSc2ncc3c(n2)-c2ccccc2N(C)S3(=O)=O)cc1 1.69%, COCCNC(=O)CCC(=O)NNc1nc2ccccc2c2nc(-c3ccccc3)nn12 -1.23%, CCC(Oc1ccccc1)C(=O)Nc1nnc(S(=O)(=O)Nc2ccccc2)s1 (configuration not stated) -3.05%, CCc1ccc(CNC(=O)c2ccc(CSc3nc4ccncc4n3Cc3ccccc3)cc2)cc1 -4.06%, CCCCC(CC)COC(=O)C(C#N)=C(c1ccccc1)c1ccccc1 (configuration not stated) 25.1%, Nc1c2c(nc3ccccc13)CCCC2 -7.93%, Cc1cc(C)cc(NC(=O)C2CCN(S(=O)(=O)c3cccc4nonc34)CC2)c1 -0.275%, COc1ccc(CNC(=O)Nc2cn(CC(C)C)c(=O)c3ccccc23)c(OC)c1 -10.7%, Cc1noc(-c2ccccc2OCC(=O)Nc2cccc([N+](=O)[O-])c2)n1 -0.114%, CC(=O)c1ccc(N2CCN(C(=O)NCc3noc4ccc(C)cc34)CC2)cc1 14.2%, COC(=O)CCc1sc(Nc2ccc(OC)cc2)nc1-c1ccc(OC)cc1 0.737%, COc1ccc(N2CCN(C(=O)CCS(=O)(=O)c3cc4c(cc3Cl)NC(=O)CO4)CC2)cc1 1.02%

outcome, inactive:
Cc1ccc2ccc(C(Nc3ccccn3)c3ccccc3)c(O)c2n1 (configuration not stated), Cc1ccc(Nc2c(-c3ccc(C)cc3)nc3cnccn23)cc1, CCOc1ccc(NC(=O)C(C)Sc2nnc3cc(C)c4ccccc4n23)cc1 (configuration not stated), Cc1nc2c(-c3ccccc3)c(C)nn2c(C)c1CCC(=O)NCc1cccc(Cl)c1, CC(=O)Nc1c(C)nn(-c2ccccc2)c1N1CCC(C(=O)Nc2cc(Cl)ccc2C)CC1, CC(C)c1ccc(CNCCSc2nnnn2C)cc1, CCOC(=O)c1c(C)c(C(=O)NCCc2ccc(OC)cc2)c(C)n1C, CCC(Oc1ccccc1)C(=O)Nc1ccccc1OCc1cc(=O)n2ccccc2n1 (configuration not stated), CCC(C)NC(=O)c1ccc2c(c1)N(Cc1ccccc1)C(=O)c1ccccc1S2(=O)=O (configuration not stated), CN1CCN(CCCNC(=O)c2cnn(-c3ccccc3)c2C2CCN(C(=O)OC(C)(C)C)CC2)CC1, Fc1ccc(CNc2ncnc3c2c(-c2ccccc2)cn3-c2ccccc2)cc1, Cc1ccc(C)c(NC(=O)CCNS(=O)(=O)c2ccc3c(c2)CCCC(=O)N3)c1, Cc1ccc(C)c(N2CCN(C(=O)CN3C(=O)CSc4c3c(C)nn4-c3ccccc3)CC2)c1, CCC(Sc1nncn2c1cc1sccc12)C(=O)Nc1cccc(OC)c1 (configuration not stated), CCOC(=O)CC(NC(=O)Cn1nnc(-c2ccccc2C)n1)c1ccc(OC)cc1 (configuration not stated), CCc1ccc(C(=O)c2cn(CC(=O)Nc3ccc(F)cc3)c3cc4c(cc3c2=O)OCO4)cc1, COc1ccc(NC(=O)Cn2c(C)c3cnn(-c4ccccc4)c(=O)c3c2C)c(OC)c1, Cc1cccc(-c2noc(C3CC(=O)N(c4ccc5c(c4)OCCO5)C3)n2)c1 (configuration not stated), Clc1ccccc1-c1nc(Nc2ccccc2)nc2ccc(Br)cc12, Cc1ccccc1NC(=O)CC1C(=O)NCCN1C(=O)c1cccc(Cl)c1 (configuration not stated), CC(=O)c1cc(C(=O)Nc2cccc(C)c2)c2ccccn12, Cc1ccc(C)c(N(C)C(=O)C2CCN(S(=O)(=O)c3cccc4nsnc34)CC2)c1
